T1: human CD19 (Homo sapiens, UniProt P15391)
T1 construct: expressed in transfected cells; host or cells: mouse cell line 300.19
T1 sequence (P15391 20-556): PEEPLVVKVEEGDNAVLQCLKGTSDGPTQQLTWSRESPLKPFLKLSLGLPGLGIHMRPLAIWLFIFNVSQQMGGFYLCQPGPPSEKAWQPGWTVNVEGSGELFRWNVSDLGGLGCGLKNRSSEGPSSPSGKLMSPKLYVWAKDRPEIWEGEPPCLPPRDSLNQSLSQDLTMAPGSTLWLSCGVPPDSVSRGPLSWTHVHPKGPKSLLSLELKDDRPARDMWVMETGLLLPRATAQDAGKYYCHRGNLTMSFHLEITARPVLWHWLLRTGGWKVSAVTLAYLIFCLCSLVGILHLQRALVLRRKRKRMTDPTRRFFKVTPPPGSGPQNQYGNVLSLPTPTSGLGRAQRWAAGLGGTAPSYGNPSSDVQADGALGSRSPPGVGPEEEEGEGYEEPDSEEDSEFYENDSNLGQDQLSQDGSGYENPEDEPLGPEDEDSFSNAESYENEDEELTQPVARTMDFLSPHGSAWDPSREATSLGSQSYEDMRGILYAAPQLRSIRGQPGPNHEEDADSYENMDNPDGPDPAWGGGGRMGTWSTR

B1: NEG258-based TBM: TBM of Example 1A with NEG258-based CD19 binding arm; with the 16 nM CD3 ABM probably CD3hi TSP1 (antibody)
heavy: QVQLVQSGAEVKKPGASVKVSCKASGYTFTTYWIQWVRQAPGQRLEWMGAVYPGDADTRYTQKFQGRVTLTADRSASTAYMELSSLRSEDTAVYYCGRDAGLEYYALDYWGQGTLVTVSSASTKGPSVFPLAPSSKSTSGGTAALGCLVKDYFPEPVTVSWNSGALTSGVHTFPAVLQSSGLYSLSSVVTVPSSSLGTQTYICNVNHKPSNTKVDKRVEPKSCGGGGSGGGGSEVQLVESGGGLVQPGGSLKLSCAASGFTFNTYAMNWVRQASGKGLEWVGRIRSKYNNYATYYADSVKDRFTISRDDSKSTLYLQMNSLKTEDTAVYYCVRHGNFGNSYVSWFAYWGQGTLVTVSSGGGGSGGGGSGGGGSGGGGSQAVVTQEPSLTVSPGGTVTLTCRSSTGAVTTSNYANWVQQKPGQAPRGLIGGTNKRAPWTPARFSGSLLGDKAALTLSGAQPEDEAEYFCALWYSNLWVFGGGTKLTVLGGGGSDKTHTCPPCPAPELLGGPSVFLFPPKPKDTLMISRTPEVTCVVVAVSHEDPEVKFNWYVDGVEVHNAKTKPREEQYASTYRVVSVLTVLHQDWLNGKEYKCKVSNKALAAPIEKTISKAKGQPREPQVCTLPPSREEMTKNQVSLSCAVKGFYPSDIAVEWESNGQPENNYKTTPPVLDSDGSFFLVSKLTVDKSRWQQGNVFSCSVMHEALHNHYTQKSLSLSPGK
light: EIVMTQSPATLSVSPGERATLSCRASQDVGTAVAWYQQKPGQAPRLLIYWASTRHTGIPARFSGSGSGTEFTLTISSLQSEDFAVYFCQQYANFPLYTFGQGTKLEIKRTVAAPSVFIFPPSDEQLKSGTASVVCLLNNFYPREAKVQWKVDNALQSGNSQESVTEQDSKDSTYSLSSTLTLSKADYEKHKVYACEVTHQGLSSPVTKSFNRGEC
chain: SQQIYGVVYGNVTFHVPSNVPLKEVLWKKQKDKVAELENSEFRAFSSFKNRVYLDTVSGSLTIYNLTSSDEDEYEMESPNITDTMKFFLYVLESGGGGSDKTHTCPPCPAPELLGGPSVFLFPPKPKDTLMISRTPEVTCVVVAVSHEDPEVKFNWYVDGVEVHNAKTKPREEQYASTYRVVSVLTVLHQDWLNGKEYKCKVSNKALAAPIEKTISKAKGQPREPQVYTLPPCREEMTKNQVSLWCLVKGFYPSDIAVEWESNGQPENNYKTTPPVLDSDGSFFLYSKLTVDKSRWQQGNVFSCSVMHEALHNRYTQKSLSLSPGK
B2: NEG218-based TBM: TBM of Example 1A with NEG218-based CD19 binding arm; with the 16 nM CD3 ABM probably CD3hi TSP2 (antibody)
heavy: EVQLVQSGAEVKKPGESLKISCKASGYSFTNYWMNWVRQMPGKGLEWMGMIHPSDSEIRLNQKFQGQVTLSVDKSIGTAYMQWSSLKASDTAMYYCSRWYYLSSPMDYWGQGTTVTVSSASTKGPSVFPLAPSSKSTSGGTAALGCLVKDYFPEPVTVSWNSGALTSGVHTFPAVLQSSGLYSLSSVVTVPSSSLGTQTYICNVNHKPSNTKVDKRVEPKSCGGGGSGGGGSEVQLVESGGGLVQPGGSLKLSCAASGFTFNTYAMNWVRQASGKGLEWVGRIRSKYNNYATYYADSVKDRFTISRDDSKSTLYLQMNSLKTEDTAVYYCVRHGNFGNSYVSWFAYWGQGTLVTVSSGGGGSGGGGSGGGGSGGGGSQAVVTQEPSLTVSPGGTVTLTCRSSTGAVTTSNYANWVQQKPGQAPRGLIGGTNKRAPWTPARFSGSLLGDKAALTLSGAQPEDEAEYFCALWYSNLWVFGGGTKLTVLGGGGSDKTHTCPPCPAPELLGGPSVFLFPPKPKDTLMISRTPEVTCVVVAVSHEDPEVKFNWYVDGVEVHNAKTKPREEQYASTYRVVSVLTVLHQDWLNGKEYKCKVSNKALAAPIEKTISKAKGQPREPQVCTLPPSREEMTKNQVSLSCAVKGFYPSDIAVEWESNGQPENNYKTTPPVLDSDGSFFLVSKLTVDKSRWQQGNVFSCSVMHEALHNHYTQKSLSLSPGK
light: EIVMTQSPATLSVSPGERATLSCRASQDVGTAVAWYQQKPGQAPRLLIYWASTRHTGIPARFSGSGSGTEFTLTISSLQSEDFAVYFCQQYSSYPYTFGQGTKLEIKRTVAAPSVFIFPPSDEQLKSGTASVVCLLNNFYPREAKVQWKVDNALQSGNSQESVTEQDSKDSTYSLSSTLTLSKADYEKHKVYACEVTHQGLSSPVTKSFNRGEC
chain: SQQIYGVVYGNVTFHVPSNVPLKEVLWKKQKDKVAELENSEFRAFSSFKNRVYLDTVSGSLTIYNLTSSDEDEYEMESPNITDTMKFFLYVLESGGGGSDKTHTCPPCPAPELLGGPSVFLFPPKPKDTLMISRTPEVTCVVVAVSHEDPEVKFNWYVDGVEVHNAKTKPREEQYASTYRVVSVLTVLHQDWLNGKEYKCKVSNKALAAPIEKTISKAKGQPREPQVYTLPPCREEMTKNQVSLWCLVKGFYPSDIAVEWESNGQPENNYKTTPPVLDSDGSFFLYSKLTVDKSRWQQGNVFSCSVMHEALHNRYTQKSLSLSPGK

Experiments:
[1] = system: cyno B cells; test: Binding of TBMs to cyno B cells (flow cytometry); design: species or system cynomolgus; conditions: 1 ug/mL, gated on CD20 positive population
Method: Cynomolgus (cyno) PBMCs (iQ Biosciences #IQB-MnPB102) were depleted of CD3+ cells using MACS positive selection (Miltenyi #130-092-012). The remaining cell population was resuspended in a FACS buffer. 100,000 cells per well were plated in a V-bottom 96-well plate, and incubated on ice for one hour with TBMs of Example 1A (i.e., R variants) at 1 ug/mL. Following two washes with FACS buffer, the cells were incubated with Alexa-647 labeled anti-human Fc secondary antibody (Jackson Immuno #109-605-098) and cyno cross reactive FITC mouse anti-human CD20 antibody (BD Pharmingen #556632) for one hour on ice. Following two washes with FACS buffer, cells were resuspended in 100 μL of buffer and data was collected on a Beckman Coulter Cytoflex. Cells were analyzed using CytExper v2.3 and gated through CD20 positive population.

[2] = system: Nalm6 target cells; test: Re-directed T cell cytotoxicity by CD19 TBMs, Nalm6 (Examples 7, 8); type: cell-based, human; conditions: E:T 3:1 or 5:1; 24-96 hr
Method: (§1) In one study, the TBMs were compared across multiple donor effector cells. Briefly, huCD19-expressing Nalm6 or Karpas422 target cells were engineered to overexpress firefly luciferase. Cells were harvested and resuspended in RPMI medium (Invitrogen #11875-093) with 10% FBS. 2,500 target cells per well were plated in a flat-bottom 384-well plate. Human pan T effector cells were isolated via MACS negative selection (Miltenyi Biotec #130-096-535) from two donors from cryopreserved PBMC (Cellular Technologies Limited #CTL-UP1) then added to the plate to obtain a final E:T ratio of 3:1 or 5:1. Co-cultured cells were incubated with a serial dilution of all constructs and controls. For normalization, average maximum luminescence refers to target cells co-incubated with effector cells, but without any test construct. […] Luminescence was measured on an Envision plate reader after a 10 minute incubation. Percent specific lysis was calculated using the following equation: Specific lysis (%)=(1−(sample luminescence/average maximum luminescence))*100
(§2) In one study, the TBMs were compared across multiple donor effector cells. […] For normalization, average maximum luminescence refers to target cells co-incubated with effector cells, but without any test construct. […] Luminescence was measured on an Envision plate reader after a 10 minute incubation. […]

[3] = system: Karpas422 target cells; test: Re-directed T cell cytotoxicity by CD19 TBMs, Karpas422 (Examples 7, 8); type: cell-based, human; conditions: E:T 3:1 or 5:1; 24-96 hr
Method: as §1, §2

[4] = system: T cells; test: Cytokine release assay with Nalm6 target cells (Example 10); type: cell-based, human; conditions: E:T 5:1, 24 hr
Method: Briefly, huCD19-expressing Nalm6 target cells were harvested and resuspended in RPMI medium with 10% FBS. 20,000 target cells per well were plated in a flat-bottom 96-well plate. Human pan T effector cells were isolated via MACS negative selection from cryopreserved PBMC then added to the plate to obtain a final E:T ratio of 5:1. Co-cultured cells were incubated with serial dilutions of all constructs and controls. After an incubation of 24 hr at 37° C., 5% CO2, the supernatants were harvested by centrifugation at 300×g for 5 min for subsequent analysis.
A multiplexed ELISA was performed according to the manufacturer's instructions using a V-PLEX Proinflammatory Panel 1 Kit (MesoScale Discovery #K15049D).

[5] = biological target: T1, human CD19; test: Binding of TBMs to 300.19 cells overexpressing human CD19 (FACS); conditions: serial dilutions
Method: (§3) The mouse cell line 300.19 was engineered to overexpress either human CD19 or cyno CD19. Cells were cultured in RPMI medium (Invitrogen #11875-093) with 10% FBS and 2-mercaptoethanol. Cells were harvested and resuspended in FACS buffer (PBS containing 1% FBS). 50,000 cells per well were plated in a V-bottom 96-well plate. Each cell line was incubated with serial dilutions of TBMs of Example 1A (i.e., R variants) for one hour on ice. Cells were centrifuged for 4 min at 400×g and washed with FACS buffer. This was repeated twice, and then the cells were incubated with Alexa-647 labeled anti-human Fc secondary antibody (Jackson Immuno #109-605-098) for 30 min on ice. The cells were washed twice, then resuspended in 100 μL of FACS buffer. FACS data was collected on a Beckman Coulter Cytoflex and analysis was performed using CytExpert v2.3.

[6] = system: cyno CD19; test: Binding of TBMs to 300.19 cells overexpressing cyno CD19 (FACS); design: species or system cynomolgus; conditions: serial dilutions
Method: as §3

| Molecule | binding to cyno B cells [1] | cytotoxic potency compared between TBMs [2] | cytotoxic potency compared between TBMs [3] | cytokine secretion by T cells (IFN-γ, TNF-α, IL2) [4] | binding to cells overexpressing human CD19 [5] | binding to cells overexpressing cyno CD19 [6] |
| --- | --- | --- | --- | --- | --- | --- |
| B1 | bind to cyno B cells | more potent than the NEG218-based TBM | more potent than the NEG218-based TBM | induce significant cytokine secretion | bind to cell lines engineered to overexpress both human and cyno CD19 | bind to cell lines engineered to overexpress both human and cyno CD19 |
| B2 | bind to cyno B cells |  |  | induce significant cytokine secretion | bind to cell lines engineered to overexpress both human and cyno CD19 | bind to cell lines engineered to overexpress both human and cyno CD19 |
